From PubChem BioAssay AID1347071 (National Center for Advancing Translational Sciences (NCATS), 2019)
Out of some 410,000 compounds screened, about 260 (0.063%) were called active. The inconclusive results got no clear call from the source; some entries with a clear call stand among them for comparison. Calls follow the shape of the dose curve; as a rule, active = well fitted activation curve with a large enough effect; inconclusive = small, poorly fitted or top-dose-only effect; inactive = no such curve, though single readings can be large or run the other way. Potencies of inconclusive entries are left out as doubtful fits.

assay: qHTS for compounds that reverse cellular toxicity of Amyloid beta (A-beta) peptide in yeast: Primary Screen; conditions: yeast expressing A-beta42, growth rescue, OD600, 48 h; growth rescue: at 46.1 µM (top of the series), 0% DMSO, 100% iron-clioquinol control; also: nearly all actives have a fitted effect of over 55% in size
Summary of the method: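 Growth rescue measured by 600 nm absorbance after 48 h yeast culture at 30 C with compound. Values normalized between DMSO and an equimolar ferric chloride plus clioquinol control.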
Potency is read from the fitted curve at half-maximal effect; tags tell the direction and shape of the fitted curve.

| SMILES | growth rescue | Potency |
| --- | --- | --- |
| O=C1c2cccc3c(N4CCCCC4)ccc(c23)C(=O)N1CCO | inactive: -25.1% |  |
| O=C(Cn1nnc2ccccc2c1=O)N[C@H](C(=O)O)c1ccccc1 |  | inconclusive [activator, single point] |
| Oc1ccc(Cl)cc1C=Nc1ccc2c3c(cccc13)CC2 | inactive: -8.38% |  |
| COc1ccccc1C(=O)NNC1=C(C(=O)C(F)(F)F)CCC1 |  | inconclusive [activator, partial curve, poor fit] |
| Cc1cccc(-n2ccnc2SCC(=O)Nc2cccc3ccccc23)c1 | inactive: -12.7% |  |
| Cc1cc(C)cc(-n2ccnc2SCC(=O)Nc2cccc3ccccc23)c1 | inactive: -10.7% |  |
| CC(=O)c1cccc(N(CC(=O)N2CCOCC2)S(C)(=O)=O)c1 |  | inconclusive [activator, partial curve, poor fit] |
| Cc1ccc(CN2C(=O)C(O)(c3c(C)[nH]c4ccccc34)c3ccccc32)cc1 (stereo not given) |  | inconclusive [activator, single point] |
| O=C1[C@H]2[C@@H](c3ccc(C(F)(F)F)cc3)N[C@]3(CCCN(CC4CCCCC4)C3=O)[C@H]2C(=O)N1Cc1ccccc1 |  | inconclusive [activator, full curve, poor fit] |
| C=CCNC(=O)NC(=S)c1ccccc1 |  | inconclusive [activator, partial curve] |
| CCCCC(=O)N(C)c1c(CC)nc2c(OCc3cccc(Cl)c3)cccn12 |  | inconclusive [activator, single point] |
| O=C(Nc1ccc(F)cc1)C(c1cccc(F)c1)N1CCN(c2cccc(C(F)(F)F)n2)CC1 (stereo not given) |  | inconclusive [activator, partial curve, poor fit] |
| CC(C)c1ccc(S(=O)(=O)/N=C2\C=C(NS(=O)(=O)c3ccccc3)C(=O)c3ccccc32)cc1 |  | inconclusive [activator, partial curve, poor fit] |
| COC(=O)C1=C(C)N=C2SC(C)C(=O)N2C1c1cccs1 (stereo not given) |  | inconclusive [activator, full curve, poor fit] |
| CCN(C(=O)COC(=O)CCS(=O)(=O)c1ccccc1)c1c(N)n(Cc2ccccc2)c(=O)[nH]c1=O |  | inconclusive [activator, single point] |
| COc1ccc(/C=N/n2cc(-c3ccc(OC)cc3)nc2N)cc1 |  | inconclusive [activator, partial curve, poor fit] |
| O=C(C1CCCC1)N1CCC(CO)(Cc2ccccc2Cl)CC1 |  | inconclusive [activator, single point] |
| Cc1ccc(NC(Cc2cc(C)no2)c2ccccc2)cc1 (stereo not given) |  | inconclusive [activator, single point] |
| CC1(C)CC(=O)C(C=Nc2cc(C(=O)c3ccccc3)ccc2N)=C(O)C1 |  | inconclusive [activator, single point] |
| CC(C)Oc1ccc(C(=O)/C=C2/C(=O)Nc3ccccc32)cc1 |  | inconclusive [activator, single point] |
| COc1ccc(CCN2C(=O)CSC2=Nc2ccc(C(C)C)cc2)cc1OC |  | inconclusive [activator, partial curve] |
| CC(C)=CCSc1nnc([C@@H](NC(=O)OC(C)(C)C)C(C)C)o1 |  | inconclusive [activator, full curve, poor fit] |

| SMILES | growth rescue | Potency |
| --- | --- | --- |
| Cc1noc(C)c1S(=O)(=O)N1CCC(C(=O)c2ccccc2)CC1 |  | inconclusive [activator, partial curve, poor fit] |
| Cc1cccc(CN2C(=O)c3ccccc3Sc3ccc(C(=O)NCc4ccco4)cc32)c1 | inactive: -2.16% |  |
| Cc1ccc(C(C)C)c(OCc2ccc(C(=O)N/N=C/c3cccc(O)c3O)cc2)c1 |  | inconclusive [activator, single point] |
| CC(Cc1cccs1)NC(=S)Nc1ccc(F)cc1 (stereo not given) |  | active: 12.6 µM |
| O=[N+]([O-])c1ccc(S(=O)(=O)NN=Cc2ccc(Cl)c(Cl)c2)cc1 |  | inconclusive [activator, partial curve, poor fit] |
| C=CCn1c(CSCc2ccc(F)cc2)n[nH]c1=S |  | inconclusive [activator, single point] |
| CCCCOc1cccc(OCC(=O)Nc2nc3ccccc3[nH]2)c1 |  | inconclusive [activator, partial curve, poor fit] |
| CCOc1ccccc1C1C(C(=O)Nc2ccccc2)=C(C)Nc2c(C(=O)Nc3ccc(F)cc3)cnn21 (stereo not given) |  | inconclusive [activator, partial curve, poor fit] |
| Oc1cccc(/C=C/c2ccc3cccc(O)c3n2)c1 |  | inconclusive [activator, partial curve] |
| Cc1cc(C)cc(NC(=S)NCCSc2ccc(Cl)cc2)c1 |  | inconclusive [activator, partial curve, poor fit] |
| COc1ccccc1NC(=S)N(Cc1ccccc1)Cc1ccccn1 |  | inconclusive [activator, partial curve] |
| Cc1ccc(S(=O)(=O)Nc2cccc3cccnc23)c([N+](=O)[O-])c1 | inactive: 6.21% |  |
| O=C(NCC1COc2ccccc2O1)c1cccc(S(=O)(=O)N2CCN(c3ccccc3)CC2)c1 (stereo not given) |  | inconclusive [activator, full curve, poor fit] |
| COc1ccc(/C(N)=N/OC(=O)C2CCC(=O)N2S(=O)(=O)c2ccc(C)cc2)cc1OC (stereo not given) |  | inconclusive [activator, single point] |
| Cc1ccc(N2CC(C(=O)OCC(=O)c3ccc[nH]3)CC2=O)cc1 (stereo not given) | inactive: -3.96% |  |
| O=C(NCc1cccs1)C1CCN(c2ccc(S(=O)(=O)N3CCOCC3)cc2Cl)CC1 |  | inconclusive [activator, partial curve, poor fit] |
| O=C(CCc1ccccc1)NC(=S)Nc1cc(C(F)(F)F)ccc1N1CCOCC1 |  | inconclusive [activator, full curve] |
| CCN(CC)CCN(C(=O)c1ccc2c(c1)CCCC2)c1nc2ccc(C)cc2s1 | inactive: -5.66% |  |
| C=CCNC(=O)CSc1nc2cc(C(=O)OCC)ccc2n1CC | inactive: -15.9% |  |
| CCOC(=O)N1CCN(C(=S)NC(=O)/C=C/c2ccc(C)cc2)CC1 |  | inconclusive [activator, partial curve, poor fit] |
| COc1cccc(C(=O)Nc2cccc(SC)c2)c1 |  | inconclusive [activator, partial curve, poor fit] |
| CCN1CCCC1CNc1ncnc2c1[nH]c1ccc(Cl)cc12 (stereo not given) |  | inconclusive [activator, partial curve, poor fit] |

| SMILES | growth rescue | Potency |
| --- | --- | --- |
| COCc1c(C(=O)NCCc2ccc(OC(F)F)cc2)oc2ccccc12 |  | inconclusive [activator, single point] |
| COc1cc2c(cc1OC)C(COc1ccc(F)cc1)N(C(=O)Cc1ccccc1)CC2 (stereo not given) | inactive: -6.86% |  |
| COc1ccc(-c2cc3nc(C)cc(N4CC(C)CC(C)C4)n3n2)cc1 (stereo not given) | inactive: -6.45% |  |
| CC(Oc1ccc2c3c(c(=O)oc2c1)CCCC3)C(=O)NCCCn1ccnc1 (stereo not given) | inactive: 6.19% |  |
| S=c1[nH]nc(COc2ccc(Cl)cc2)n1-c1ccccc1 |  | inconclusive [activator, single point] |
| O=C(NCCc1ccc(F)cc1)Nc1ccccc1 |  | inconclusive [activator, partial curve] |
| CC1=CC(C2CC(=O)N(c3ccc(C)cc3)C2=O)CC2C(=O)N(c3ccc(C)cc3)C(=O)C12 (stereo not given) |  | inconclusive [activator, single point] |
| COc1ccc(CNc2nc(S(=O)(=O)c3ccccc3)c(Cl)s2)cc1OC | inactive: -2.21% |  |
| O=C(NC(=S)Nc1cc(C(F)(F)F)ccc1N1CCOCC1)c1ccco1 |  | inconclusive [activator, single point] |
| Cc1cccc(C)c1-n1ncc(C(=O)NCc2ccc3c(c2)OCO3)c1C1CCN(C(=O)OC(C)(C)C)CC1 | inactive: -0.389% |  |
| CC(=O)Nc1ccc(S(=O)(=O)NN=Cc2ccc(Cl)c(Cl)c2)cc1 |  | inconclusive [activator, partial curve] |
| O=C(CSc1nccn1-c1cccc(Cl)c1)Nc1cccc(C(F)(F)F)c1 |  | inconclusive [activator, single point] |
| COc1ccc(-n2c(=O)c3ccccc3n(CC(=O)NCCc3ccccc3)c2=O)c(OC)c1 | inactive: -2.09% |  |
| C=CCOc1c(Br)cc(/C=C2/C(=O)ON=C2C)cc1OC |  | inconclusive [activator, partial curve, poor fit] |
| COc1cc(C(=O)Nc2nccs2)cc(OC)c1OC |  | inconclusive [activator, partial curve, poor fit] |
| Cc1nc2c(C(=O)NCc3ccccc3Cl)c[nH]n2c(=O)c1Cc1cccc(Cl)c1 | inactive: -5.98% |  |
| COc1ccc(-c2c(C)nn3c(-c4ccccc4)cc(C)nc23)cc1 | inactive: 1.83% |  |
| S=c1[nH]c2ccccc2n1Cc1ccccc1 |  | active: 11.2 µM |
| O=[N+]([O-])c1ccc(CNc2cccc(F)c2)s1 |  | inconclusive [activator, partial curve, poor fit] |
| CCCCCCCCCCOC(=O)NC1CCS(=O)(=O)C1 (stereo not given) |  | inconclusive [activator, single point] |
| N#C/C(=C\c1ccc(F)cc1)C(=O)NCC1CCCO1 (stereo not given) |  | inconclusive [activator, single point] |
